# Measurements reported in the supplement of paper PMC4166925.
# ± gives the standard deviation of the averaged measurements. In all, about 33,000 sequences were measured (“E-score (dimensionless, -0.5 to 0.5)”: median about -0.046, highest 2% from about 0.36 on). Some of the results follow.
# Test system: T1, SpTbr T-box DNA-binding domain (GST fusion)
# T1 sequence: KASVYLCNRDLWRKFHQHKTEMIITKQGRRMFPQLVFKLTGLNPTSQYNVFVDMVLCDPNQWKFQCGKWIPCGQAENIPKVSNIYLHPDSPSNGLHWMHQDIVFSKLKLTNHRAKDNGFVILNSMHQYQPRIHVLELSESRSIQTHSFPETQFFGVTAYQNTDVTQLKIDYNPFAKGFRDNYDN
# Experiment: PBM E-score of 8-mer (E-score (dimensionless, -0.5 to 0.5)); Tbr is Tbrain of the sea star Patiria miniata (Pm) or the sea urchin Strongylocentrotus purpuratus (Sp); higher = stronger binding preference; most listed sequences are background and not binding sites
# Details: the construct has about 5 more residues each side
# Outline: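 Each ungapped 8-mer received an enrichment E-score from the Universal PBM Analysis Suite, averaged over duplicate arrays. The proteins were Tbr T-box DNA-binding domains, covering the whole T-box plus about five flanking residues, fused to GST and expressed in BL21 E. coli at 20 °C before glutathione affinity purification. Universal Agilent oligonucleotide arrays were made double-stranded by primer extension and incubated with 200 nM protein in PBS (pH 7.5). The arrays were then scanned and quantified, and every 8-mer was scored from probe intensities.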
row,Sequence,PBM E-score of 8-mer
1,ATATGAGG,-0.0598 ± 0.035
2,CGAAGCCC,-0.203 ± 0.036
3,GGCCACAA,0.0675 ± 0.11
4,AAGCAGTG,-0.0374 ± 0.056
5,GAAACGGA,-0.0529 ± 0.085
6,CGCAGGCC,-0.219 ± 0.079
7,GTGCACGA,0.0777 ± 0.035
8,GGAGTGAC,0.276 ± 0.028
9,CAGAGAGG,-0.256 ± 0.071
10,CCTTCTCG,-0.0292 ± 0.051
11,ATGATATG,-0.0268 ± 0.05
12,GTCGAACA,0.0974 ± 0.0084
13,ACTTTGAA,-0.115 ± 0.07
14,CAGTAGTC,-0.277 ± 0.0045
15,CACCGCTC,-0.0244 ± 0.057
16,ATCACCAC,0.113 ± 0.004
17,ATAAGGGC,-0.203 ± 0.01
18,ACTTAGCG,0.132 ± 0.038
19,AGGCAAAC,-0.124 ± 0.076
20,AATCTAAA,-0.114 ± 0.18
21,CTGATATC,-0.129 ± 0.0017

row,Sequence,PBM E-score of 8-mer
1,AGATGAGA,-0.0859 ± 0.041
2,ACCCTGAT,-0.0972 ± 0.0089
3,AACGATGG,-0.114 ± 0.037
4,ACAGAACT,-0.144 ± 0.0088
5,AAGTCTAG,-0.18 ± 0.1
6,ACCATGAC,-0.0371 ± 0.016
7,ACACAGTA,0.116 ± 0.02
8,ATTTGACC,-0.268 ± 0.041
9,GCAAGGAC,-0.0951 ± 0.075
10,GCACCTGA,0.386 ± 0.0077
11,AAGACAAC,-0.00027 ± 0.037
12,GCGGAAAA,-0.0586 ± 0.00091
13,TCTGCACA,0.174 ± 0.07
14,GACTGTTA,0.199 ± 0.029
15,CTGTTCCA,-0.12 ± 0.029
16,AAGCAGGC,-0.0614 ± 0.02
17,ATCATCCG,-0.0848 ± 0.11
18,TCGGCACA,0.183 ± 0.032
19,GACGGCCC,-0.127 ± 0.05
20,ACCCGGCT,-0.22 ± 0.011
21,CCGAGTTA,-0.114 ± 0.095

row,Sequence,PBM E-score of 8-mer
1,ATGGGTGC,0.131 ± 0.087
2,CTTCGTGA,0.06 ± 0.073
3,AGGAGTCC,-0.268 ± 0.06
4,AGGATCTC,0.0127 ± 0.052
5,AAACACTC,0.167 ± 0.029
6,CTGCACAA,-0.0168 ± 0.015
7,CAACCGAC,0.0155 ± 0.024
8,AGCACACA,0.113 ± 0.046
9,ATTTGATG,-0.207 ± 0.0081
10,ACGCTCTG,-0.0868 ± 0.028
11,CCACCATA,-0.12 ± 0.0082
12,GTCTCCCA,-0.0763 ± 0.029
13,ACATTCAC,0.26 ± 0.018
14,ACGTTAAC,0.255 ± 0.013
15,CGAAGATA,0.0301 ± 0.04
16,AGAAGGGG,0.0152 ± 0.044
17,CATCCTTA,-0.00751 ± 0.052
18,CCTGCGCG,0.156 ± 0.018
19,CCGCCTCA,0.00768 ± 0.15
20,ATTGACTA,-0.198 ± 0.0081
21,CCAGGGAG,-0.214 ± 0.045
